Results taken from ChEMBL document CHEMBL4888484, “Replenishing the malaria drug discovery pipeline: Screening and hit evaluation of the MMV Hit Generation Library 1 (HGL1) against asexual blood stage Plasmodium falciparum ,using a nano luciferase reporter read-out” (2022).
In all, about 150,000 compounds went through this assay and about 540 (0.36%) showed an effect of 50% or more. The list shows a part of the results.

Test system: Plasmodium falciparum
Experiment: Primary screen in NF54 nanoGlo assay, in single point, at 2uM, 72h; a lower Z score goes with more inhibition
Format: functional, Erythrocyte
Details: timepoint 72 hour

| Structure (SMILES) | % Inhibition [%] | Z score |
| --- | --- | --- |
| Clc1cccnc1OC1CCOCC1 | -14 | 1.82 |
| Cc1ccc(S(=O)(=O)n2nc(-c3cn(C)nc3C)c(Cl)c2-c2cn(C)nc2C)cc1 | 31 | -3.52 |
| O=C1NCCN(C(=O)C2Cc3ccccc3C2)[C@H]1CCO | -7 | 0.79 |
| CN(C)[C@H]1CCCN(Cc2cccc3cc[nH]c23)C1 | -8 | 1.6 |
| CC(C)n1cc(NC(=O)NCCc2ccc(S(N)(=O)=O)cc2)nn1 | -12 | 2.2 |
| CCOC(=O)N1CCC2(O)CCCCC2[C@@H]1c1ccc(OC)cc1 (stereo partly specified) | -10 | 1.27 |
| CN(Cc1ccns1)C(=O)N[C@H]1CCCC1(F)F | -7 | 1.42 |
| CCN(CC)CCCNC(=O)c1cc2occc2c(Nc2ccccc2)n1 | -5 | 0.55 |
| O=c1[nH]n(C2CCOCC2)c2c1[C@@H](c1ccc(F)c(Cl)c1)CC(O)=N2 | -7 | 0.97 |
| COc1ccc(CC(=O)NCCc2csc(C)n2)cc1 | -11 | 2.02 |
| CCc1noc([C@H](C)N2CCc3ncnc(OC)c3C2)n1 | -6 | 1.19 |
| CN=C(NCc1cc2ccccc2o1)NC1CC1 | 9 | -1.16 |
| CCn1cc(CN(C)Cc2cnc3c(-c4ccccc4)cnn3c2)c(C)n1 | -4 | 0.72 |
| Cc1[nH]c(CN2C[C@@H]3CCC[C@H](C2)C(=O)N3)cc1C#N | -15 | 2.62 |
| COc1cc2c3c(c1O)-c1c(cccc1OC)C[C@@H]3[N+](C)(C)CC2 | -5 | 0.47 |
| COc1cccc(CN2CCN(C(=O)N(C)C)[C@H]3CS(=O)(=O)C[C@H]32)c1 | -25 | 2.35 |
| CN(Cc1ncnn1C)c1ccc(C(=O)NC2CCCC2)nn1 | -13 | 1.28 |
| COc1cccc(-c2cn(CC(=O)Nc3ccccc3C)nc2N2CCOCC2)c1 | -9 | 1.01 |
| C[C@H](O)CNS(=O)(=O)Cc1ccccc1 | -10 | 0.98 |
| CN(C)C1CC(NC(=O)c2cccn2C)C1(C)C (stereo unspecified) | -21 | 4.05 |
| Cc1nc(-c2cccc(Cl)c2Cl)sc1-c1ccn[nH]1 | 30 | -3.91 |
| COc1ccccc1-c1nnc([C@H]2CCN(Cc3ncc[nH]3)C2)o1 | 32 | -3.57 |
| CC[C@H](NS(=O)(=O)N1CCOCC1)c1cccs1 | -17 | 2.87 |
| COc1cc2c(c(OC)c1)N(C(=O)c1cc3ncccc3o1)CCC2 | -4 | 0.8 |
| CCc1nn(-c2ccc(F)cc2)c(Oc2cccc(C)c2)c1CN(C[C@H]1CCCO1)C(=O)COC | -14 | 2.25 |
| COCCn1ccc(NCc2ccoc2)n1 | -9 | 1.63 |
| CCOc1cccc(CN2CCc3nc(N4CCOCC4)ncc3C2)c1 | -6 | 0.83 |

| Structure (SMILES) | % Inhibition [%] | Z score |
| --- | --- | --- |
| COCCCN1CC(=O)N[C@@H]2CN(C(=O)C(C)C)CC[C@@H]2OCc2cccc(c2)Oc2cc(ccc2OC)C1 | -14 | 2.62 |
| Cc1occc1C(=O)N[C@H]1CCc2ccccc21 | 1 | -0.09 |
| O=C(COC1CCCC1)N1CCCN(C2CC2)CC1 | 1 | -0.22 |
| Cn1ccc(NC(=O)NCCc2cn[nH]c2)cc1=O | -2 | 0.2 |
| COc1cccc(NS(=O)(=O)c2c(C)sc(C)c2-c2cc(C(F)(F)F)on2)c1 | -5 | 0.82 |
| O=C(Nc1ccc(S(=O)(=O)N2CCOCC2)cc1)C1=NN(c2ccccc2)C(=O)CC1 | -6 | 1.11 |
| C[C@H](NC(=NC1CC1)NCc1cc2ccccc2o1)c1ccccc1 | -10 | 0.99 |
| N#Cc1cccc(-c2ccnc(N[C@H]3CO[C@H]4[C@@H]3OC[C@@H]4NC(=O)c3ccc4c(c3)OCO4)n2)c1 | 31 | -3.5 |
| CCn1cc(Cl)c(C(=O)N(C)C[C@@]23CCC[C@H]2N(C)C(=O)CC3)n1 | -15 | 1.98 |
| O=C(NC1c2ccccc2CC12CCOCC2)N[C@H]1C[C@H]2CC[C@@H]1O2 (stereo partly specified) | -11 | 2.14 |
| COc1ccc(CCN2C(=O)[C@@H]3CCCN3C2=O)cc1OC | -8 | 0.98 |
| CC(=O)c1c(C)[nH]c(C(=O)N2CCO[C@H](c3ccccc3)C2)c1C | 2 | -0.26 |
| O=c1ccc(-n2cncn2)nn1CC1CCN(c2ncncc2F)CC1 | -15 | 2.16 |
| O=C(Nc1cc(F)ccc1O)C1CC=CC1 | 2 | -0.26 |
| COC[C@H](NC(=O)c1cc(C)cc(Br)c1)C(N)=O | -14 | 1.71 |
| C[C@@H]1CN(C(=O)CN2Cc3cnc(-c4ccccc4)nc3C2)C[C@H](C)O1 | 9 | -1.22 |
| CCOC(=O)c1nc2ccccc2nc1N1CCCN(S(=O)(=O)c2ccccc2C(F)(F)F)CC1 | -13 | 1.43 |
| CCC(=O)Nc1cccc(C2OC(=O)N(Cc3ccc(C)cc3)C2C(=O)N2CCOCC2)c1 (stereo unspecified) | 0 | 0.02 |
| CCc1ccccc1S(=O)(=O)N1CCC([C@H](O)c2ncc[nH]2)CC1 | -10 | 1.27 |
| C[C@H](NC(=O)c1ccoc1)C(=O)N1CCCCCc2ccccc21 | -13 | 1.26 |
| CN1C(=O)C[C@](CC(=O)N(C)C(C2CC2)C2CC2)(c2ccccc2Cl)C1=O | -2 | 0.31 |
| COc1cc(OC)cc(C(C(=O)O)N2CC(c3ccc(F)cc3)CC2C)c1 (stereo unspecified) | 0 | -0.03 |
| Cc1ccc2nc(NC(=O)Cc3noc4ccccc34)sc2c1 | -9 | 1.17 |
| Cc1ccc(F)c(N2CCC[C@H](NC(=O)c3ccc[nH]3)C2=O)c1 | 9 | -1.78 |
| O=C(c1cccs1)N(CCc1cccs1)C1CCOCC1 | -6 | 1.14 |
| F[C@@H]1CN(Cc2ccc(C(F)(F)F)cc2)C[C@@H]1OCc1nc2ccccc2[nH]1 | 3 | -0.41 |
